The RNAGym collection of RNA variant scans (doi:10.1093/nar/gkz1192)
The source gives no read counts; variants with many changes may rest on few reads.

B1: CPEB3 Ribozyme (parent)
chain: UAACAGGGGGCCACAGCAGAAGCGUUCACGUCGCAGCCCCUGUCAGAUUCUGGUGAAUCUGCGAAUUCUGCUGUAUAUCUC

Variants of: B1
Assay: self-cleavage, relative activity (ratio to wild type); higher = more cleavage; in vitro, sequencing
Method in brief: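 Barcoded CPEB3 ribozyme mutants, produced by rounds of error-prone PCR, self-cleaved while being transcribed with T7 RNA polymerase for 5 hours at 37°C and during a subsequent 15 min DNase I step before EDTA was added. Sequencing of template-switched cDNA on Illumina gave cleaved and total reads, and DNA sequencing assigned barcodes to variants. Each variant's relative activity is its cleaved/total read fraction divided by the unmutated ribozyme's fraction, averaged across three batches. A variant needed a minimum of 5 reads.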

| Variant | self-cleavage |
| --- | --- |
| A20G C39A U43C | 0.39 |
| A20G U25C U26C U43A U51C | 0.09 |
| A20G U25C U43C A56G | 0.23 |
| A20G U26C A47G U48G A56C U67G | 0.09 |
| A20G U43C A56U A64G | 0.17 |
| A20U A28G C40A U58A | 0.18 |
| A20U A28G U48C U60C | 0.25 |
| A20G U25C U51A C59A | 0.14 |
| A20G U41C C50U U58C A75G | 0.12 |
| A20G G33A A35G G63A | 0.21 |
| A20G U26C G46A A56G G70A U76C | 0.06 |
| A20G U41C G55A | 0.77 |
| A20G C29U U43C | 0.11 |
| A20G U26C U41A U51A U66C U78C | 0.08 |
| A20G G24U C32G | 0.15 |
| A20G G33A G46A | 0.42 |
| A20G U31C U41C U49C U72G | 0.23 |
| A20G U26A C40A U49C G70A | 0.07 |
| A20G U25C U54A C62G | 0.06 |
| A20U A28G U54C A75U C79G | 0.19 |
| A20U A35U U67A U80C | 0.58 |

| Variant | self-cleavage |
| --- | --- |
| A20G U41C C50U U78A | 1.15 |
| A20G C27U C40U U43C | 0.23 |
| A20G U26C A28U U51A U69C A77G | 0.2 |
| A20G U41C A47G U66A | 0.42 |
| A20G U49C U51C U74G | 0.2 |
| A20G C37U U41C A56G A75G | 0 |
| A20G G30A A47G U48C A57U | 0.07 |
| A20G U43C U51A | 0.44 |
| A20G C29U G36U A45G U58C A75G | 0.05 |
| A20G U54G U67C U74A | 1.13 |
| A20G U72A U80C | 1.23 |
| A20U A45G G53A A75G | 0.13 |
| A20G U49G U54C A64U U72C | 0.07 |
| A20G U43A U66C U72C U78A | 0.32 |
| A20G U25C G30A U48C | 0.19 |
| A20G C34A A45G G61A | 0.18 |
| A20U A28U G36A U72A U74A | 0.04 |
| A20G C38U U43A U58C U69A G70A | 0.11 |
| A20G U49C U80C | 0.37 |
| A20G G30U U31A U41C A47G U54A U74C | 0.27 |
| A20G U25C A64G U72C U74C | 0.43 |

| Variant | self-cleavage |
| --- | --- |
| A20G U26C U31A U72C | 0.11 |
| A20G C40U A64G | 0.06 |
| A20U A35U C40U A45G U60C A77C | 0.13 |
| A20G G24A G36A U43C A65G U72A | 0.09 |
| A20G U58G U80C | 0.48 |
| A20G U41A U67C | 0.24 |
| A20G U76C U80C | 1.12 |
| A20G C40U U72C | 0.77 |
| A20G U43A A65G G70A | 0.16 |
| A20G U26A A57C | 0.35 |
| A20G U48G A56C U67G | 0.09 |
| A20G C34U U43C U58C A77G | 0.05 |
| A20G U48G G55A A57C U67C | 1.05 |
| A20G U25A U43C G63A | 0.31 |
| A20U A45G A57U | 0.09 |
| A20G C32A C62U | 0.53 |
| A20G U51G U58C U67C | 0.19 |
| A20G U25C A28G A77U | 0.03 |
| A20U A35G U41A | 0.15 |
| A20U A35G U58C | 0.31 |
| A20G U26A A28G A35G U54C U76C | 0.64 |

| Variant | self-cleavage |
| --- | --- |
| A20G C29U U60C | 0.24 |
| A20G G30U A57G | 0.06 |
| A20U A28C G46U U54A | 0.17 |
| A20U A28C G53C U67C C81U | 0 |
| A20U A35U U43C U49C U72G A75U | 0.13 |
| A20G U25C G33A U51A | 0.08 |
| A20G U31A U80C | 0.51 |
| A20G G46C U49C U58C C62U U78C U80C | 0 |
| A20U A21U A65G | 0.21 |
| A20G G33C U41C A56G U72C | 0.06 |
| A20G U41C U58C U66A | 0.46 |
| A20G U41G A77G U80C | 0.22 |
| A20G U25C C59U A64G | 0.32 |
| A20G U31C U54C | 0.28 |
| A20U A28G G30A C40A U43A U58A | 0.04 |
| A20G G42A U60A | 0.12 |
| A20G U49C U76A | 0.32 |
| A20G C27G A47G | 0.06 |
| A20G U26C A35C A64G | 0.21 |
| A20G U41G U48C U49A A64U U78C | 0.15 |
| A20G G24A A28G U31C U49C | 0.13 |
